# Test results as given in ChEMBL document CHEMBL4888484, “Replenishing the malaria drug discovery pipeline: Screening and hit evaluation of the MMV Hit Generation Library 1 (HGL1) against asexual blood stage Plasmodium falciparum ,using a nano luciferase reporter read-out” (2022).
# Out of some 150,000 compounds screened, about 540 (0.36%) showed an effect of 50% or more. The list shows a part of the results.
# Test system: Plasmodium falciparum
# Test: Primary screen in NF54 nanoGlo assay, in single point, at 2uM, 72h; a lower Z score goes with more inhibition
# Format: functional, Erythrocyte
# Conditions: timepoint 72 hour
SMILES,% Inhibition [%],Z score
CN(C(=O)C1CCN(C2CCN(c3nc4ccccc4o3)CC2)CC1)[C@H]1CCOC1,-4,0.66
CCC(C)N1C(=O)CCC1c1c(-c2cccc(OC)c2)n(C)c2ccccc12 (stereo unspecified),35,-3.99
CCCCn1nnnc1CN1C[C@H](C)c2ccccc21,-4,0.49
Cc1cc(O)c(OCC(=O)/N=c2\[nH]c(C)c(C)s2)cn1,-12,1.55
COc1cccc(CNC(=NC[C@H]2CCCO2)NC2CC2)c1,-10,1.85
Cc1cnccc1NCCNC1CCN(c2ccc(Cl)cc2)CC1,99,-17.94
COC(=O)Nc1cccc(NCCCS(=O)(=O)c2ccc(C)cc2)c1,14,-1.53
Cc1cc(NC2CCCC3OCCC23)nc(C2CC2)n1 (stereo unspecified),18,-2.05
Cc1nc(-c2ccc(-c3nc4c([nH]3)CCCNC4=O)cc2)no1,4,-0.4
CCC1=NO[C@@H](CNC(=O)c2ccc(-c3ccc(NCCO)nn3)cc2)C1,-3,0.37
O=C(NCC(=O)N1CCCC1)C1CCCC1,-13,1.14
CC(C)c1cccc2c1CCN(C(=O)c1cnccn1)C2,36,-3.63
CC(C)(C)n1cc(CN2c3ccccc3C[C@@H]2CO)cn1,-7,1.28
CN(Cc1ccccn1)C(=O)c1cc(-c2ccc(Cl)c(Cl)c2)ns1,0,0.02
CCOc1cc2cc(c1)C(=O)N(C)CC(=O)N[C@@H]1CN(Cc3ccc(C(=O)N(C)C)o3)CC[C@@H]1OCc1cccc(c1)O2,0,0.01
C[C@@H](C(=O)NCc1ccc(O)cc1O)N(C)C,0,0.03
CC(C)Oc1ccccc1[C@H](C)NCc1nc(C2CC2)nn1C,7,-1.37
CCn1c(N)c(-c2nc3ccccc3[nH]2)c(=O)c2ccccc21,-1,0.15
CCc1ncc(NC(=O)[C@@H](C)COC)cn1,-9,0.91
CN1CCN(c2nc(N3CCCCC3)nc3c2CN(S(=O)(=O)c2ccccc2)CC3)CC1,8,-1.05
C[C@H](O)c1nnnn1CC(=O)Nc1cccc(S(=O)(=O)N2CCCC2)c1,3,-0.37

SMILES,% Inhibition [%],Z score
Cc1cc(N2CCC3(CC2)C[C@H](c2ccccc2)CN(C2CC2)C3)nc(N)n1,-17,1.78
CC(=O)N1CCN(C(=O)CN2CCCC[C@H]2c2cc(C)n[nH]2)CC1,-10,0.99
Cc1nc(-c2csc(S(=O)(=O)Nc3cccc(OC(F)(F)F)c3)c2)sc1C,-14,2.06
O=C(Nc1cncc(Cl)c1)N1CCC2(CC1)OCc1ccccc12,-3,0.55
O[C@H]1Cc2ccccc2C12CCN(CCn1cc(Cl)cn1)CC2,7,-0.62
CCC1=NO[C@@H](CN2CCc3nc(C)[nH]c3C2)C1,8,-1.25
Cc1ccc(CN2C[C@]34C=C[C@H](O3)C(C(=O)N3CCN(C)C(=O)C3)C4C2=O)cc1C (stereo partly specified),-7,0.76
Cc1noc(-c2ccc3c(c2)OCO3)c1C(=O)NCc1cccc(Cl)c1,-14,2.25
CN(CC(F)(F)F)C(=O)CN1CC(C)(C)[C@H]1c1ccncc1,2,-0.25
CCO[C@H]1C[C@@H](O)C12CCN(C(=O)C1(C#N)CCOCC1)CC2,-4,0.5
O=C(Nc1nc2cc3c(cc2s1)OCCO3)[C@H]1CCS(=O)(=O)C1,-4,0.62
Cc1n[nH]c(C)c1CCn1ccnc1-c1c(F)ccc(Cl)c1F,-1,0.11
O=C(Nc1ccccn1)N[C@@H](CCO)C1CCCCC1,4,-0.58
CN1CCN(c2ccc(N3CCN(C)CC3)nn2)CC1,3,-0.44
O=C(NC1CCC2CCCC2C1)N1CCOC2(CNC2)C1 (stereo unspecified),26,-3.29
Cc1c(CNC(N)=NCc2ccco2)oc2ccc(F)cc12,-12,1.24
CCCc1nc(N[C@H](C)c2cccc(OC)c2)c2cnn(C)c2n1,1,-0.1
Cc1c([C@@H]2CC(=O)Nc3c2cnn3Cc2ccccc2Cl)cnn1C,-4,0.62
O=C(CN(Cc1ccccc1)C(=O)c1ccccc1Cl)Nc1nc(-c2ccccc2)cn1-c1ccc(F)cc1,10,-0.97
CC(C)Cc1cc(C(=O)N2CCc3[nH][nH]c(=O)c3CC2)no1,-3,0.57
Cc1ccc(NCc2cc(Cl)cc3c2OCOC3)c(Br)c1,-1,0.17

SMILES,% Inhibition [%],Z score
CN(C(=O)c1ccc(OCC(F)(F)F)nc1)C1(C#N)CCC1,38,-5.16
CN([C@H]1CCc2ccccc21)S(=O)(=O)c1ccc2c(c1)CCC2,36,-0.76
Nc1nc(CCNC(=O)c2conc2-c2ccccc2)n[nH]1,-13,1.68
CN(CCc1nccs1)Cc1cn[nH]c1,-6,0.73
C[C@@H](CC(C)(C)O)OC(=O)c1ccnc(N(C)C)c1,-11,1.65
CC1(C)CC[C@H](NC(=O)CCCN2C(=O)CNC2=O)c2ccccc21,-1,0.13
COCCN1CCC(c2n[nH]c(CNC(=O)OCc3ccccc3)n2)CC1,-5,0.69
Cc1ccc(-c2csc(Cc3nc(-c4ccc(C)cc4)no3)n2)cc1,-15,1.45
O=C(Nc1ccccc1)C(=O)Nc1cccc2[nH]ccc12,-9,0.93
Cn1nccc1CNC(=O)NCC1CC12CCCc1ccccc12 (stereo unspecified),3,-0.45
Cc1ccc(C)c(S(=O)(=O)NC[C@@H]2C[C@H](F)CN2)c1,-9,1.52
COc1cc2c(cc1OC)C(Nc1ccccc1)=NC(C)(C)C2,-2,0.38
COc1ccnc(CN2CCc3[nH]nc(-c4ccc(-c5ccccc5)cc4)c3C2)c1,1,-0.17
COc1ccccc1NS(=O)(=O)c1cc(NC(=O)c2ccc(C)c(S(=O)(=O)Nc3cccc(C)c3)c2)ccc1Cl,-8,1.27
CCOC(=O)N1CCN([C@H]2CCCN(C3CCN(Cc4ccco4)CC3)C2)CC1,-17,1.48
Fc1ccccc1Nc1nc(-c2cccc(Cl)c2)c2c(n1)-c1ccccc1OC2,-7,1.33
Cc1ccc(F)c(C(=O)N2CCN(C3CCOCC3)C[C@H]2C)c1,-1,0.15
CN1N=C(C(=O)Nc2cc(-c3ccccc3)on2)CCC1=O,-11,1.53
Cc1ccc(Cl)cc1N1CCN(C(=O)NCC2CCC2)CC1,-8,1.47
Fc1cc(Cl)ccc1CN1CCC(n2cncn2)CC1,-4,0.44
CO[C@@H](C)c1noc(CN(C)c2ccnc(N(C)C)n2)n1,-1,0.1

SMILES,% Inhibition [%],Z score
O=C(CN1CCCCCCC1)N1CC(c2nc3ccccc3[nH]2)C1,-4,0.81
O=C(Nc1ccc2c(c1)OCO2)c1c(-c2ccc(Cl)cc2)nc2n1CCS2(=O)=O,33,-0.56
CN1C(=O)C[C@H](C(=O)NC2CC(=O)N(c3ccccc3)C2)[C@H]1c1cccnc1 (stereo partly specified),-6,1.14
Cc1conc1COc1ccc([C@@H]2CCC(=O)N2)cc1,-8,1.03
Cc1cc(C)c(-n2cccn2)c([C@H]2CC(=O)Nc3[nH]nc(C4CC4)c32)c1,3,-0.48
CC(=O)N[C@H]1[C@H](OCc2ccccc2)O[C@@H]2COC(c3ccccc3)O[C@H]2[C@@H]1OC(C)C(=O)O (stereo partly specified),29,-3.75
CCCCn1nccc1N[C@H]1CCCOC1,-9,1.17
CN(Cc1cccn1C)C(=O)[C@@](C)(O)CN1C(=O)NC2(CCCC2)C1=O,-3,0.4
Cc1cc(=O)c(C(=O)N2CCc3ccccc3C2)c(CCc2ccccc2)n1CCN(C)C,-4,0.51
CC(C)=CCN1CC2(CCN(C(=O)c3c(F)cccc3F)CC2)CC1=O,-6,0.66
CN1C(=O)c2ccc(S(=O)(=O)N3CCC(C(F)F)CC3)cc2C1=O,1,-0.06
COc1cc(NC(=O)c2cc3n(n2)C[C@@H](c2ccc4c(c2)OCO4)OC3)c(OC)cc1Cl,-3,0.58
CCN(C)C(=O)c1coc(CN2CCN(Cc3ccccc3)CC2)n1,0,0
O=C(c1csc(Cl)c1)N1CCCC1CC(O)c1cccs1 (stereo unspecified),2,-0.28
CN1CCN(c2nc3c(c(Oc4ccc(F)cc4)n2)CN(C(=O)Nc2cccc(Cl)c2)CC3)CC1,3,-0.37
COc1ccc(C[C@H](C)CNC(=O)c2ccon2)cc1,2,-0.23
COCC1(CNCc2n[nH]c(C)c2Cl)CCC1,-9,1.84
Cc1ncc(CN2C[C@@H]3CCC[C@H](C2)C(=O)N3)n1C,-3,0.31
CC(C)(Oc1ccc(C(F)(F)F)cc1)C(=O)N1CC(C2CS(=O)(=O)C2)C1,-11,1.77
Cc1cc(CS(=O)(=O)[C@@H](C)C(=O)NCc2ccccc2)no1,15,-2
